No constants are given. Whether binding was seen depends on the method and setting. For some assays here: Binding seen in cells or lysates may run through a third protein. Some results given as binding are weak or reduced against the parent protein; the word gives no strength. For some assays here: Sequences can lack the tags named with a protein. One block for each substance: values may come before it.
Key:
[1] = molecular target: VC155-tagged WWP2 (human) (UniProt O00308); assay: split reporter; bimolecular fluorescence complementation in HEK-293 cells co-transfected for 48 h, without SEMA3G; fixed cells, confocal microscopy; CFP signal for Cdc42 with WWP2
[2] = molecular target: T1, NRP2 (endogenous, GSC07 tumour tissue and GSC cells) (human (endogenous in GSC07 xenograft tumour; host tissue is mouse)) (UniProt O60462); assay: alkaline phosphatase ligand binding assay; brain sections of GSC07 tumour-bearing nude mice incubated with AP-SEMA3G (2 nM) for 90 min at room temperature, endogenous AP inactivated at 65 °C, BCIP/NBT colour development; with or without pre-incubation with an NRP2-neutralizing antibody
T1 sequence: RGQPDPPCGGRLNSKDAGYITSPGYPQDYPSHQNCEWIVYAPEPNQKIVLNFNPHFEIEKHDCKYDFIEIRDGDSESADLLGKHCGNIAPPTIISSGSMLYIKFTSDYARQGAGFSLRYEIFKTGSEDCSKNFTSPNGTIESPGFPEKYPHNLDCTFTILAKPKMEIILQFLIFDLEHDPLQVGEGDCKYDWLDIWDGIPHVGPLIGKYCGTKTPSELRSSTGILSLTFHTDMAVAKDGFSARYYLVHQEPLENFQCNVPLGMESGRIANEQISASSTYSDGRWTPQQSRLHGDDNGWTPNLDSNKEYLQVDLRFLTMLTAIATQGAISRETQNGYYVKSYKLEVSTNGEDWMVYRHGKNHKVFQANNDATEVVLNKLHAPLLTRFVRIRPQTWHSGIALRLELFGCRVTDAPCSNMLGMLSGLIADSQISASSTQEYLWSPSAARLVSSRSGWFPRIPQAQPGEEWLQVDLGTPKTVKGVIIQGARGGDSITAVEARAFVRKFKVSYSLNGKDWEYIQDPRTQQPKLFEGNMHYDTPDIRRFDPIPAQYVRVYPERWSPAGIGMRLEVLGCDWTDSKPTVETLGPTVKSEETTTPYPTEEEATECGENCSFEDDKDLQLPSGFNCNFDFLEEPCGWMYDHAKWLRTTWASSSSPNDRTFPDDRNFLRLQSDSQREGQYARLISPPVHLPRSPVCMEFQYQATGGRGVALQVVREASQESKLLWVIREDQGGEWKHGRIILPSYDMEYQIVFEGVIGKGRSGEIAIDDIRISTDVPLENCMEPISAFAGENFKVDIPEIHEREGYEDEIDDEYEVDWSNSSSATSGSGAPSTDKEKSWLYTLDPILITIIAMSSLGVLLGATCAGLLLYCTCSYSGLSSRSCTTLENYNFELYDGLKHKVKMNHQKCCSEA

By UniProt entry, the sequences of proteins in these tests, tags left out. Where a name states a change or a piece, a line headed by the entry shows the natural chain unless it says otherwise. Residues count along the entry.
UniProt O00308: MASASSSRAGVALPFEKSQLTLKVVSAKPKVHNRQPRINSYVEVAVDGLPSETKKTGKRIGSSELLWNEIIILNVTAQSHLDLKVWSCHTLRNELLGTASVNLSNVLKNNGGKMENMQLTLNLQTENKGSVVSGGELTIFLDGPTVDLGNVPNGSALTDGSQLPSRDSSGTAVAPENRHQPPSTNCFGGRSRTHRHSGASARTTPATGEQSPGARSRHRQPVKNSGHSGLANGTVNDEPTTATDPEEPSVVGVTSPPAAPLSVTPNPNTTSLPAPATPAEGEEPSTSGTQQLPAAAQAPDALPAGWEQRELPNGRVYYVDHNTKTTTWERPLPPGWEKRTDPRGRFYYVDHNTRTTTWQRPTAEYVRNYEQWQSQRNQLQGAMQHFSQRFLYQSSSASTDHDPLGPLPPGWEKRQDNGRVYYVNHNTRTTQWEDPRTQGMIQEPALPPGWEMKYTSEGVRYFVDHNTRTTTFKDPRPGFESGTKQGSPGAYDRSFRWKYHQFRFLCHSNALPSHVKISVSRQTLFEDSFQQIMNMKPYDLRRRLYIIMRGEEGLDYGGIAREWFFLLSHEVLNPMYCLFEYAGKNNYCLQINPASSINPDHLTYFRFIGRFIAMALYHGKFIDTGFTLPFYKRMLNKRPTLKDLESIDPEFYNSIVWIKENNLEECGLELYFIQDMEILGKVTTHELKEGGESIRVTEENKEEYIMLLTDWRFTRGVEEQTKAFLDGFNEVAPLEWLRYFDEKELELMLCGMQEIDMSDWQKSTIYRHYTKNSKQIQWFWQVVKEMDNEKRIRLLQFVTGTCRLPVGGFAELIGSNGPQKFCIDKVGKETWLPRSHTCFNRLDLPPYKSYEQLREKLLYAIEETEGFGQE
UniProt Q9UKB1: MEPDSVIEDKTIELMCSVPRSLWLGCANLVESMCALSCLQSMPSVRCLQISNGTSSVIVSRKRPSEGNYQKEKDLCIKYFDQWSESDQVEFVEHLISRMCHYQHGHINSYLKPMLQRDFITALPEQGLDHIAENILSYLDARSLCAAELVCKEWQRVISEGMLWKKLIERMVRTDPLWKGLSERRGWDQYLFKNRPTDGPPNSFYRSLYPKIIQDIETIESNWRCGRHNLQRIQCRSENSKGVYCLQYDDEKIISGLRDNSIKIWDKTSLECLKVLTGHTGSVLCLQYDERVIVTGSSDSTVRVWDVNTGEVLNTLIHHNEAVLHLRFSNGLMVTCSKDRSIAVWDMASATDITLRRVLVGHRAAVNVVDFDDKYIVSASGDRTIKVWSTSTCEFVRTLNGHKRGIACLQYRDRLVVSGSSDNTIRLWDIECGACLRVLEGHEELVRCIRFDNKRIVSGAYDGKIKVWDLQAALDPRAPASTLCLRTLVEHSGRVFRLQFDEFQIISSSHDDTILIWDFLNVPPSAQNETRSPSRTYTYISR
UniProt O95155: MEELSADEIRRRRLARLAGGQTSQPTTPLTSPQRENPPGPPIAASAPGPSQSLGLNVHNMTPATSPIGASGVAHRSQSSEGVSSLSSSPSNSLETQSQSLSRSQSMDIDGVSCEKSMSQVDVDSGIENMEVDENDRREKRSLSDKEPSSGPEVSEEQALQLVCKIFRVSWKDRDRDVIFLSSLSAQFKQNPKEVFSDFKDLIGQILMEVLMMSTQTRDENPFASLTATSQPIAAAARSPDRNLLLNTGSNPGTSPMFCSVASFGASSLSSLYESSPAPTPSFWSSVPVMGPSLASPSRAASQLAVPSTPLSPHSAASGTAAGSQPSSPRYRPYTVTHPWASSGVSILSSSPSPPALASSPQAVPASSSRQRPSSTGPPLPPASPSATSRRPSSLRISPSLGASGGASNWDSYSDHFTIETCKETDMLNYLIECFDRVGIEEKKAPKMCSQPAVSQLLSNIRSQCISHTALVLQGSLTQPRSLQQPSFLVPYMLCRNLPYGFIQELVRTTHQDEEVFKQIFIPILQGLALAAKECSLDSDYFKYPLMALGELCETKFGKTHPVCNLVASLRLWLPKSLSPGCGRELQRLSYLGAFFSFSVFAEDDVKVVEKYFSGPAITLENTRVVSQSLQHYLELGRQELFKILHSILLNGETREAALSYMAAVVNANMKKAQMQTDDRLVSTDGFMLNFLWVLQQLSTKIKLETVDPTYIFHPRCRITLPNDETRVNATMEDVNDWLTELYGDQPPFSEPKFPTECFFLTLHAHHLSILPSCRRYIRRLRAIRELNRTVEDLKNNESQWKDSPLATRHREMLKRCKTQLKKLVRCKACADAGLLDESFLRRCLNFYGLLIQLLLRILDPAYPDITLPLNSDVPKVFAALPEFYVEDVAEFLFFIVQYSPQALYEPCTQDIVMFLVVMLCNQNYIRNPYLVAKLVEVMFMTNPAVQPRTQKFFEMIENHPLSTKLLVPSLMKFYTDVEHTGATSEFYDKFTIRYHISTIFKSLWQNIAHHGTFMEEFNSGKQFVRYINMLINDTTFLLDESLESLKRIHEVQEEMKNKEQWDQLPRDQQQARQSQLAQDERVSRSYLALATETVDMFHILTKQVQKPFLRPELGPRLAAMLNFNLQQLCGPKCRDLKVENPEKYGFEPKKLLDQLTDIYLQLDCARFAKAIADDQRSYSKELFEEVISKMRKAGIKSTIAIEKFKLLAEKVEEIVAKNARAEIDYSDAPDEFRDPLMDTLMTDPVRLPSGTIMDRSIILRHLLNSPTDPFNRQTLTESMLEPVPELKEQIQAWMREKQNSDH
UniProt Q9NS98, residues 23-782: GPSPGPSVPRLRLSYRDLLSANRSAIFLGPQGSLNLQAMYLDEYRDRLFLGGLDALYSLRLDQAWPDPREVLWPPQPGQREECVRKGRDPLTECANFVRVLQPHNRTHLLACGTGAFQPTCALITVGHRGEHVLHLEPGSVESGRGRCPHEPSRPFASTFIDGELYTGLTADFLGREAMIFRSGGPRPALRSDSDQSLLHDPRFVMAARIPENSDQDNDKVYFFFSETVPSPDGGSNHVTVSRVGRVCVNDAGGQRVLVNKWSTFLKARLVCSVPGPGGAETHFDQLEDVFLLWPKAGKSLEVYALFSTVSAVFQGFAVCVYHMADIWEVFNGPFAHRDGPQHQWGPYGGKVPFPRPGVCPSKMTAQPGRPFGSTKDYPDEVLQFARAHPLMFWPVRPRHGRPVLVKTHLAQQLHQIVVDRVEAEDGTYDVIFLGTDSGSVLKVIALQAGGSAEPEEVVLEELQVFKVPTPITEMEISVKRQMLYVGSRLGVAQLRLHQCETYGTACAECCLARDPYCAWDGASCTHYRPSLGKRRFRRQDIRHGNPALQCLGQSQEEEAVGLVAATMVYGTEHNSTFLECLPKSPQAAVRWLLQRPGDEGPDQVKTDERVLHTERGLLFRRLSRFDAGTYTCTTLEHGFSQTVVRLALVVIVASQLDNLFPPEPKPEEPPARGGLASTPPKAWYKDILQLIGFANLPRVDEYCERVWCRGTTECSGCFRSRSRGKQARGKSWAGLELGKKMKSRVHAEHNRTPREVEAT
UniProt P60953: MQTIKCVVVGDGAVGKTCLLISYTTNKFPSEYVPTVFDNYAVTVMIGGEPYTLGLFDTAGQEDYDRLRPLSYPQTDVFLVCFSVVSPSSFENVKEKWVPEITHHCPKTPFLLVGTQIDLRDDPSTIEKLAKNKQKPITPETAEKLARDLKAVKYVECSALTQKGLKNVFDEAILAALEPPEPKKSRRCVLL
UniProt P01106, residues 16-454: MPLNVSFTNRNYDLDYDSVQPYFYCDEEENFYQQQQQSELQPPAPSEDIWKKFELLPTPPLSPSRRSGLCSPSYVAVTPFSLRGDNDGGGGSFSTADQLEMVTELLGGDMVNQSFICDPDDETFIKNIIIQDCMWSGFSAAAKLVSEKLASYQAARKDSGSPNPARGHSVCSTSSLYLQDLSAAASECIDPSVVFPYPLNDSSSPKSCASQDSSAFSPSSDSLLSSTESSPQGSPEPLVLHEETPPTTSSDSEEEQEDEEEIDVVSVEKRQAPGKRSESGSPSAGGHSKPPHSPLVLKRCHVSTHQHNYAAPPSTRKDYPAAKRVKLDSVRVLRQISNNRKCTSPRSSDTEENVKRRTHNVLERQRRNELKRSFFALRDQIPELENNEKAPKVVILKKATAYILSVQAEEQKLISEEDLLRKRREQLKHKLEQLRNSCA
UniProt Q9UIW2, residues 27-1896: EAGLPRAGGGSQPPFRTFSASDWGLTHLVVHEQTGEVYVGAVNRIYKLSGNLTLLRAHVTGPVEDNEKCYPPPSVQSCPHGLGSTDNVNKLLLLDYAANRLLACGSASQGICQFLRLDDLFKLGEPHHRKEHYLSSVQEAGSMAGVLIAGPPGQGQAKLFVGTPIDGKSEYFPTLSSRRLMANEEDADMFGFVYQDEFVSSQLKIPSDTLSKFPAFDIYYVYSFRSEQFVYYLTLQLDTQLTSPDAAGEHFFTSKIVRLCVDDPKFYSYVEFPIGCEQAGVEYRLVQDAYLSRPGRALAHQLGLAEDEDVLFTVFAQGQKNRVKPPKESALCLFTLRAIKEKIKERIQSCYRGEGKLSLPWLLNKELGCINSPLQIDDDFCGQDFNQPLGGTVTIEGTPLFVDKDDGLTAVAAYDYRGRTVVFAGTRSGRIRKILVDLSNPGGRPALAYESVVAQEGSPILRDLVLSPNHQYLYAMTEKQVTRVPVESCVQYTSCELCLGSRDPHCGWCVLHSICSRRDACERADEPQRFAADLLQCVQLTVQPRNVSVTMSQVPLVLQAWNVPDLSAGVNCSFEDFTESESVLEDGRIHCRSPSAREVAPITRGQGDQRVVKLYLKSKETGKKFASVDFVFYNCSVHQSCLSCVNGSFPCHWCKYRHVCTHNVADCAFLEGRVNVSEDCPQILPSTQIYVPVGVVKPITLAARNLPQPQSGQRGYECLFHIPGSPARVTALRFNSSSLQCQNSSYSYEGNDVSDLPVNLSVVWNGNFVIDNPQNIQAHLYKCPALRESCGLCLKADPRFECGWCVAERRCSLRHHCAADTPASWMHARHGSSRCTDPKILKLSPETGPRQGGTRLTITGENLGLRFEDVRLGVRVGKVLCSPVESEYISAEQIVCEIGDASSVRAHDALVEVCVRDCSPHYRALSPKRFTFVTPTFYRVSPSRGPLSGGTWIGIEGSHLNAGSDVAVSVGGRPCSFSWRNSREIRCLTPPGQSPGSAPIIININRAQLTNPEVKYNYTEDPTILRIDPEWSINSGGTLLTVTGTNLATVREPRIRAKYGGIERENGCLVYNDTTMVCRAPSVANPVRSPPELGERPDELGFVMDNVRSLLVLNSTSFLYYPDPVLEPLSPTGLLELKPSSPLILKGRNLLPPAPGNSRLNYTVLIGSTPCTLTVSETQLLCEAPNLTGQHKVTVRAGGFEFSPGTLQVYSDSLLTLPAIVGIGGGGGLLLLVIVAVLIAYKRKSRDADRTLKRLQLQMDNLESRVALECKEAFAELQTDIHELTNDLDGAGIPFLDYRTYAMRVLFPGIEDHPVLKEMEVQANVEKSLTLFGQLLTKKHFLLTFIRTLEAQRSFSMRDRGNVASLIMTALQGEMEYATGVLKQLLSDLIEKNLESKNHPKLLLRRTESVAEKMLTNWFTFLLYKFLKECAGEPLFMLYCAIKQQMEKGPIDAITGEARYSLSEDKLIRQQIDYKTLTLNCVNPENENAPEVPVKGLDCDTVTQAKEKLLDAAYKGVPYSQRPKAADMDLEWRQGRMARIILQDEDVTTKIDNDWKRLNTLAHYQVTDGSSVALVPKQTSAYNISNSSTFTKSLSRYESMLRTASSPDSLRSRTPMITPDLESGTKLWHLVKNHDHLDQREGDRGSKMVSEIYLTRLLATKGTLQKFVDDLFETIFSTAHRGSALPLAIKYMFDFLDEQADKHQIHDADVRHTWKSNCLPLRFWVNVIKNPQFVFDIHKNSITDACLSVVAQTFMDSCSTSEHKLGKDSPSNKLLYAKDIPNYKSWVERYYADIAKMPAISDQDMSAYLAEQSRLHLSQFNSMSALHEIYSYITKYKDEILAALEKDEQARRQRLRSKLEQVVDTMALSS

[3] = molecular target: VC155-tagged WWP2 (human) (UniProt O00308); assay: split reporter; bimolecular fluorescence complementation in HEK-293 cells co-transfected for 12 h and then incubated with SEMA3G (200 ng/ml) for 48 h; confocal microscopy; CFP signal for Cdc42 with WWP2, Venus signal for WWP2 with c-Myc
HA-tagged NRP2 (human) = molecular target: T2, HA-tagged NRP2 (human) (UniProt O60462); assay: co-IP; HEK-293 cells co-transfected with tagged proteins for 48 h; IP buffer 20 mM Tris-HCl, 150 mM NaCl, 1% Triton X-100, 0.5% sodium deoxycholate; tag antibodies overnight at 4 °C, Protein A/G beads, immunoblot; in Fig. 7G, J also with Flag-c-Myc and HA-ubiquitin, in Fig. 7J with or without SEMA3G (200 ng/ml) for 48 h
T2 sequence: T1 sequence

MYC-tagged WWP2 (human) = MYC-tagged WWP2 (human) (UniProt O00308); assay: as above
[4] = molecular target: endogenous WWP2 (GSC07 cells) (human (endogenous in GSC07)) (UniProt O00308); assay: co-IP; endogenous proteins in GSC07 cell lysate; IP buffer 20 mM Tris-HCl, 150 mM NaCl, 1% Triton X-100, 0.5% sodium deoxycholate; immunoblot
MYC-tagged UBE4A (human) = molecular target: T3, MYC-tagged UBE4A (human) (UniProt Q14139); assay: co-IP; HEK-293 cells co-transfected with tagged proteins for 48 h; IP buffer 20 mM Tris-HCl, 150 mM NaCl, 1% Triton X-100, 0.5% sodium deoxycholate; tag antibodies overnight at 4 °C, Protein A/G beads, immunoblot; in Fig. 7G, J also with Flag-c-Myc and HA-ubiquitin, in Fig. 7J with or without SEMA3G (200 ng/ml) for 48 h
T3 sequence: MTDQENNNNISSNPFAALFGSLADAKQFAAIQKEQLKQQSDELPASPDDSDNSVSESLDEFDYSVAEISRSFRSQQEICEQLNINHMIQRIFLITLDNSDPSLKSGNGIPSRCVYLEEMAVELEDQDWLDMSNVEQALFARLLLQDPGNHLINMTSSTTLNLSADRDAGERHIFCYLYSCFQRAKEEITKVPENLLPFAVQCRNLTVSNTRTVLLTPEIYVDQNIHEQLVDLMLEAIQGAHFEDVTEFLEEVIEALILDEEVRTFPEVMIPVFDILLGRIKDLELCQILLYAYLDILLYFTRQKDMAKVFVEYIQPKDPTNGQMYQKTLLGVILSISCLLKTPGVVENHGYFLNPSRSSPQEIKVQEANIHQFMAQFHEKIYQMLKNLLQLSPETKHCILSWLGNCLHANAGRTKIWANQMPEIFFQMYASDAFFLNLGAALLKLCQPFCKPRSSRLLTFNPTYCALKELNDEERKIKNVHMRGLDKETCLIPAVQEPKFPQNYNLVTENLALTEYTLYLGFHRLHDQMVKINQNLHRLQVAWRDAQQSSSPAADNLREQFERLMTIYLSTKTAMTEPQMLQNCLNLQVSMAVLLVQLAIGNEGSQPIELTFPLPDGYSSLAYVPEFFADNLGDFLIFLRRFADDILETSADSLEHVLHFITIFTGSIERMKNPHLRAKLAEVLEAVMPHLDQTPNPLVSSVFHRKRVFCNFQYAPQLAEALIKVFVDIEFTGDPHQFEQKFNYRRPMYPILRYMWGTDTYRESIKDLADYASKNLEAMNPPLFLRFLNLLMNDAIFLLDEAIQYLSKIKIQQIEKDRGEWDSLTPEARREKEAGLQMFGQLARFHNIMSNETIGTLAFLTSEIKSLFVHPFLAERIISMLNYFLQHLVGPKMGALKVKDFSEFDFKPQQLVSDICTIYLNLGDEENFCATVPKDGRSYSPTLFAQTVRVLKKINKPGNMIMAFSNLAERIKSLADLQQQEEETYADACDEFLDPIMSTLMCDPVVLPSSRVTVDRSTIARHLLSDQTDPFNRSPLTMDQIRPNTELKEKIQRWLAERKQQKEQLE

[5] = molecular target: MYC-tagged FBXW11 (human) (UniProt Q9UKB1); assay: as above
MYC-tagged UBE4B (human) = MYC-tagged UBE4B (human) (UniProt O95155); assay: as above
MYC-tagged UBOX5 (human) = molecular target: T4, MYC-tagged UBOX5 (human) (UniProt O94941); assay: as above
T4 sequence: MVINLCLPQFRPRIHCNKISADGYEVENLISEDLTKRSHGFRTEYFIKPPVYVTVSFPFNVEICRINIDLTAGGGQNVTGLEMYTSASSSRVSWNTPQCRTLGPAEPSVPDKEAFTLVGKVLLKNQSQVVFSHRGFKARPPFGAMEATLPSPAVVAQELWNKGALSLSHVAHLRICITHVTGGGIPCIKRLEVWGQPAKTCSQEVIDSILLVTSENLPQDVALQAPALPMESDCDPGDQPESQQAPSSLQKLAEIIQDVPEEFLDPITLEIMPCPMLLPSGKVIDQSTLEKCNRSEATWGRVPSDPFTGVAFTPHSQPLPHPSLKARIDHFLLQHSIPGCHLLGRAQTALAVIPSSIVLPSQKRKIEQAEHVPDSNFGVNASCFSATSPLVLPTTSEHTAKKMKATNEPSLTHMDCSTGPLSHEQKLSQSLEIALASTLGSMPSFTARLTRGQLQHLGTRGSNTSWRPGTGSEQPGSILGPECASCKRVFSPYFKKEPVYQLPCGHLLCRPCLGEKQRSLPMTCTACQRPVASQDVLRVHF

MYC-tagged FBXL3 (human) = molecular target: T5, MYC-tagged FBXL3 (human) (UniProt Q9UKT7); assay: as above
T5 sequence: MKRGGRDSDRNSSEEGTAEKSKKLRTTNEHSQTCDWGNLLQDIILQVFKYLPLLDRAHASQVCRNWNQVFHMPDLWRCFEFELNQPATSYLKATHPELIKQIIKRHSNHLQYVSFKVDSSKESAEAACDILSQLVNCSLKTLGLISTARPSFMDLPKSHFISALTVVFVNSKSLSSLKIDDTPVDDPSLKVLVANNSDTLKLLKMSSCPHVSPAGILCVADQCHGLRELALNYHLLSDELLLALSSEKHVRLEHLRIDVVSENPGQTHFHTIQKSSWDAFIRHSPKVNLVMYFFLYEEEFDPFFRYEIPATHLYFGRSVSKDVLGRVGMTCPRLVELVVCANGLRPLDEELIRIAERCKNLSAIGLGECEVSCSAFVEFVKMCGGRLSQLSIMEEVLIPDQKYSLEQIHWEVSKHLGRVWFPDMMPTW

binding [2]: binds
Substance: alkaline phosphatase-tagged (AP-tagged) recombinant SEMA3G-AP (from UniProt Q9NS98 23-782) (ligand)

binding (MYC-tagged WWP2 (human)): binds
Substance: GFP-tagged Cdc42^WT (from UniProt P60953 1-191)

binding [1]: binds weakly
Substance: CrN173-tagged Cdc42^T17N (from UniProt P60953 1-191)

The remaining lines, values behind:

Substance: CrN173-tagged Cdc42^WT (from UniProt P60953 1-191)
binding [1]: binds

Substance: VN173-tagged c-Myc (from UniProt P01106-1 1-439)
binding [3]: binds

Substance: MYC-tagged PLXNA1 (from UniProt Q9UIW2 27-1896) (receptor)
binding (HA-tagged NRP2 (human)): binds

Substance: endogenous c-Myc (GSC07 cells) (from UniProt P01106-1 1-439)
binding [4]: binds

Substance: Flag-tagged c-Myc (from UniProt P01106-1 1-439)
binding (MYC-tagged WWP2 (human)): binds | binding (MYC-tagged UBE4A (human)): no binding | binding [5]: no binding | binding (MYC-tagged UBE4B (human)): no binding | binding (MYC-tagged UBOX5 (human)): no binding | binding (MYC-tagged FBXL3 (human)): no binding

Substance: CrN173-tagged Cdc42^Q61L (from UniProt P60953 1-191)
binding [1]: binds
